Source: publication doi:10.1101/2021.12.21.473719 (bioRxiv, 2021)

Target: T1, POPDC1-Myc (Popeye domain-containing protein 1, Myc-tagged) (mouse, UniProt Q9ES83 1-358)
T1 sequence (looked up): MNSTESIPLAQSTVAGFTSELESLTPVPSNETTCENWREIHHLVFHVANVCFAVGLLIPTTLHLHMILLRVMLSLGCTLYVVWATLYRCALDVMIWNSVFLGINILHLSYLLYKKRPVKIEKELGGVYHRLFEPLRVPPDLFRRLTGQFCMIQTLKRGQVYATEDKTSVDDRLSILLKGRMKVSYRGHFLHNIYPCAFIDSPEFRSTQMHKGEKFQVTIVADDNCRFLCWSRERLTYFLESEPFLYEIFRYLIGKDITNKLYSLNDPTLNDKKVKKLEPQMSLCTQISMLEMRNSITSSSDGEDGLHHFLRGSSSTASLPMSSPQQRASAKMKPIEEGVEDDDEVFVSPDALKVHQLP
Assay: co-IP

B1: AC8 (adenylyl cyclase type 8), non-tagged (enzyme)
chain: MELSDVRCLTGSEELYTIHPTPPAGDGRSASRPQRLLWQTAVRHITEQRFIHGHRGGSGSGSGGSGKASDPAGGGPNHHAPQLSGDSALPLYSLGPGERAHSTCGTKVFPERSGSGSASGSGGGGDLGFLHLDCAPSNSDFFLNGGYSYRGVIFPTLRNSFKSRDLERLYQRYFLGQRRKSEVVMNVLDVLTKLTLLVLHLSLASAPMDPLKGILLGFFTGIEVVICALVVVRKDTTSHTYLQYSGVVTWVAMTTQILAAGLGYGLLGDGIGYVLFTLFATYSMLPLPLTWAILAGLGTSLLQVILQVVIPRLAVISINQVVAQAVLFMCMNTAGIFISYLSDRAQRQAFLETRRCVEARLRLETENQRQERLVLSVLPRFVVLEMINDMTNVEDEHLQHQFHRIYIHRYENVSILFADVKGFTNLSTTLSAQELVRMLNELFARFDRLAHEHHCLRIKILGDCYYCVSGLPEPRQDHAHCCVEMGLSMIKTIRYVRSRTKHDVDMRIGIHSGSVLCGVLGLRKWQFDVWSWDVDIANKLESGGIPGRIHISKATLDCLNGDYNVEEGHGKERNEFLRKHNIETYLIKQPEDSLLSLPEDIVKESVSSSDRRNSGATFTEGSWSPELPFDNIVGKQNTLAALTRNSINLLPNHLAQALHVQSGPEEINKRIEHTIDLRSGDKLRREHIKPFSLMFKDSSLEHKYSQMRDEVFKSNLVCAFIVLLFITAIQSLLPSSRVMPMTIQFSILIMLHSALVLITTAEDYKCLPLILRKTCCWINETYLARNVIIFASILINFLGAILNILWCDFDKSIPLKNLTFNSSAVFTDICSYPEYFVFTGVLAMVTCAVFLRLNSVLKLAVLLIMIAIYALLTETVYAGLFLRYDNLNHSGEDFLGTKEVSLLLMAMFLLAVFYHGQQLEYTARLDFLWRVQAKEEINEMKELREHNENMLRNILPSHVARHFLEKDRDNEELYSQSYDAVGVMFASIPGFADFYSQTEMNNQGVECLRLLNEIIADFDELLGEDRFQDIEKIKTIGSTYMAVSGLSPEKQQCEDKWGHLCALADFSLALTESIQEINKHSFNNFELRIGISHGSVVAGVIGAKKPQYDIWGKTVNLASRMDSTGVSGRIQVPEETYLILKDQGFAFDYRGEIYVKGISEQEGKIKTYFLLGRVQPNPFILPPRRLPGQYSLA[about 20 residues skipped]GHYNRRTLLSPSGTEPGAQAEGTDKSDLP
  fold Ca2+/calmodulin-stimulated AC activity over IgG controls: 1.8 fold
